The labels stand for the following.
B1: CPEB3 Ribozyme (parent)
chain: UAACAGGGGGCCACAGCAGAAGCGUUCACGUCGCAGCCCCUGUCAGAUUCUGGUGAAUCUGCGAAUUCUGCUGUAUAUCUC

The source gives no read counts; variants with many changes may rest on few reads.

In the series the parent is B1. Kind of series: self-cleavage, relative activity (ratio to wild type); higher = more cleavage; in vitro, sequencing. Summed up: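 For each CPEB3 ribozyme variant, relative activity is its cleaved/total read fraction divided by the unmutated ribozyme's. Barcoded error-prone PCR libraries were transcribed by T7 RNA polymerase (5 hours, 37°C) and held in DNase I for 15 min before an EDTA stop, with cleavage occurring throughout. Template-switching reverse transcription and Illumina sequencing were used to read the RNAs. A 5-read minimum applied, and results are the mean of three batches.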
As to A13U A21G U26C A35G A47G U54C U60A, the self-cleavage came out at 0.17.
Under A13U A21G U49C U58C U66C stands 0.09.
The same measure for A13G U43C U67C: 0.09; for A13U A18U U26A U80C: 0.33.
For A13U A21G A56G U72C, the self-cleavage came out at 0.13.
Take A13G U72C A77U: the self-cleavage stood at 0.33.
The same measure for A13U A18G U74G A75U: 1.23; for A13U A15G G36U: 0.09; for A13U A20G A21G U26C A77G: 0.08.
The same measure for A13U A18U A56C: 0.12; for A13G U43C U48A A56G A57G: 0.23.
Regarding A13U A20G U26C C40U U54G U60A, the self-cleavage was determined as 0.09.
Under A13U A35G U51A U67C stands 0.38.
Take A13U A15G A35G A64U: the self-cleavage turned out to be 0.19.
Under A13U A15U A35G U72C stands 0.99; under A13U A15G U25C U43C C71G, 0.06.
The same measure for A13U A28G G55A A57G: 0.43.
The same measure for A13G U58A A65C: 0.14.
A13U A20G U60C: the self-cleavage was found to be 0.32.
Take A13U A28U U49A: the self-cleavage is 0.57.
Regarding A13U A28U U49C A56G U72G, the self-cleavage is 0.25.
Under A13U A28U C71U stands 0.44; under A13U A15G A35U U51A A56G U74C, 0.74; under A13U A35G U43C A47U U49G U58A, 0.42.
Under A13G U58C U60C U69C U76A stands 0.08; under A13U A28G G53C U67C G70C G73A, 0.13; under A13G U49C U67C U69A, 0.15.
Turning to A13U A21G U31G, the self-cleavage amounted to 0.2.
Take A13U A15U C17A A18U A20C U41C: the self-cleavage turned out to be 0.11.
Under A13U A20G A45G U48C A57C stands 0.15; under A13G U49A U78C, 0.51.
Consider A13G U54C A56G, for which the self-cleavage stood at 0.67.
The same measure for A13U A18U U25C U54C U72C: 0.09.
The same measure for A13U A28U A47G U49C: 0.27.
With A13G U49C U58C, the self-cleavage was 0.18.
Under A13U A15G C32U A64U U69A A75G stands 0.06; under A13U A20G A57G, 0.46; under A13U A18U U41C U67C C71G, 0.19.
Consider A13U A15U A18G C27U C32U U41C U43A, for which the self-cleavage worked out at 0.23.
For the variant A13U A20G C38U, the self-cleavage was 0.27.
The same measure for A13G U49A U60C U69C U76G: 0.14; for A13U A21G U66C: 1.1; for A13U A18U A28U U31A: 0.09.
In the case of A13U A15G A18U U26C C38A A56G U80C, the self-cleavage turned out to be 0.07.
The same measure for A13G U54C U72A U78A: 0.34; for A13U A28G U31C: 0.55; for A13U A20U G42C C44G U72A G73A U80C: 0.13.
The same measure for A13U A28G U41A C62U A65G U80C: 0.26.
For the variant A13U A20G U43A U49C G52A C79U, the self-cleavage came out at 0.67.
A13G U51C U58C U67C: the self-cleavage was 0.17.
The same measure for A13U A20U A28U: 0.28; for A13G U69C U76C A77G: 0.33.
The same measure for A13U A20U A28U A35G: 0.33.
The same measure for A13U A21G C62U C71A: 0.03.
With A13U A28G U72G, the self-cleavage came to 0.88.
With A13U A15G A35G U51A, the self-cleavage is 1.05.
In the case of A13G U66C U69C, the self-cleavage was found to be 0.22.
In the case of A13G U48C A57G U69C U80A, the self-cleavage is 0.57.
Under A13G U67C U69A stands 0.24.
Under A13U A28C C32U C34A A45G G52U stands 0.05; under A13U A15U U58C G73A, 0.38.
A13G U49A U74C U80C: the self-cleavage came to 0.24.
The same measure for A13U A18G U25C U31C U49C U66A: 0.
Consider A13G U43C U66C U80C, for which the self-cleavage was found to be 0.19.
Take A13G U43C U60C: the self-cleavage was determined as 0.79.
Under A13U A18C C40U U66C stands 0.06.
Under A13U A18U U48C U60A A75U stands 0.17; under A13U A21G U26C A64U A75G, 0.13.
Regarding A13U A28C U31C C44A U54C, the self-cleavage amounted to 0.16.
Under A13U A15U G22A U54A stands 0.16; under A13U A18U U49C U72G U76C U80A, 0.26.
Under A13G U48C C68U stands 0.3; under A13U A35G U41A A47G A56G A77U, 0.21.
On to A13U A21G U67A, for which the self-cleavage amounted to 0.08.
Under A13G U69A U72A stands 0.21; under A13U A21U C23U, 0.17; under A13U A20U A21G G30U U43C, 0.05.
The same measure for A13G U67A G73A: 0.82; for A13G U67A G73U: 0.54.
Consider A13U A18U U72C U76C A77G, for which the self-cleavage worked out at 0.3.
On to A13U A20C A21C U31C A45G, for which the self-cleavage was determined as 0.25.
The same measure for A13U A20G U25C U31C: 0.33; for A13U A15U U54C A64G U69A: 0.1; for A13G U72C U76C U80A: 1.19.
For the variant A13U A18G C23U U54A U72C, the self-cleavage worked out at 0.16.
With A13U A15C A20U C37U C39U A45G A56U, the self-cleavage came out at 0.09.
The same measure for A13U A28U C29U A77U: 0.43; for A13U A21G A28U U51G U66C U80A: 0.86.
Under A13U A15G A64U A77G U78C stands 0.14.
The same measure for A13U A18G U43C U58C U60C A77U: 0.03; for A13U A20U U67A U78C: 1.06; for A13U A15U A18U U72C U76C: 0.26.
Take A13U A21G U41A A47G A56G U69A: the self-cleavage amounted to 0.05.
The same measure for A13G U51G U60C: 0.27; for A13G U60C C62A: 0.25.
Under A13G U60G U69C stands 0.17; under A13U A28G A35G U67C C79U, 0.34.
Under A13U A18G A21G U25A A45U U72C stands 0.06.
In the case of A13G U48C U51C A64U, the self-cleavage was 0.18.
Take A13U A15G U41C A65G U78C: the self-cleavage turned out to be 0.26.
Under A13G U54C U78C stands 0.93.
The same measure for A13U A21U A28G G46U: 0.1.
On to A13U A18G A35U C68U U72C, for which the self-cleavage came to 0.44.
For the variant A13U A35G A45G C62U U80A, the self-cleavage amounted to 0.57.
The same measure for A13U A18U U41A U48C U49A U72A U76A: 0.02; for A13U A21G U74A: 0.77; for A13G U54C U72A C79U: 0.89.
The same measure for A13U A21G G30A U78C: 0.04.
Under A13U A15C A28G C37A stands 0.17; under A13U A35G A64G U69C, 0.93; under A13U A15G U25C U48C U58A U67C, 0.1.
Regarding A13U A15G A56G, the self-cleavage was 0.66.
As for A13G U43C U78A, the self-cleavage was 0.85.
Take A13U A15G A21G U25A U72A: the self-cleavage is 0.18.
Under A13U A28G C59A G73A stands 0.07; under A13U A28U U43C C71U, 0.17; under A13U A15G A47G, 0.61.
Take A13U A18G C23U U43A U54A: the self-cleavage is 0.18.
For A13U A20U U41C U48A U72C U74C, the self-cleavage was determined as 0.15.
A13U A18U A21G: the self-cleavage came to 0.22.
Take A13U A28G U49C U78C: the self-cleavage came out at 0.12.
In the case of A13U A15G U80A, the self-cleavage was 0.66.
As to A13G U51C A65G, the self-cleavage came out at 0.35.
Under A13U A15G A28C G55A stands 0.24; under A13U A20U A47U U76C U80C, 0.28; under A13U A15C U25C U41C A65G U78C, 0.39.
The same measure for A13U A21U G55A A65U C68U U78C: 0.08.
Take A13U A18U A20G A56C A57G U74C A75G: the self-cleavage stood at 0.06.
For A13G U43G U54A, the self-cleavage stood at 0.34.
For the variant A13U A28U U43C U54A U60A C68G U80A, the self-cleavage was 0.06.
Turning to A13U A20U C40G U78C, the self-cleavage stood at 0.18.
Under A13U A15U U25C stands 0.2; under A13U A28C A57G, 0.19.
The same measure for A13U A35G A45C U72C U78C: 0.7; for A13G U54C U67C G70A: 0.11; for A13U A18G U43A: 0.96.
The same measure for A13G U66C A75G A77G: 0.11; for A13U A20G A35C U48A G70A C79A: 0.06.
For A13G U72A U80C, the self-cleavage was determined as 1.
The same measure for A13U A20G G42A: 0.08.
A13U A21G A35G A47U: the self-cleavage worked out at 0.25.
Under A13U A21G U41A stands 0.2; under A13U A21G U41C, 0.71.
Under A13G U49C U60C U69C stands 0.08; under A13U A15U G22A G33A, 0.05; under A13U A28U A35G A56G U72G, 1.21.
The same measure for A13U A20U C23U: 0.22; for A13U A28G C38U A56G C62U U72C U78C: 0.05.
For A13U A18G C34A U72C, the self-cleavage turned out to be 0.1.
Consider A13G U48A U67A, for which the self-cleavage was determined as 0.23.
Take A13U A20G A45G U54C: the self-cleavage amounted to 0.37.
Under A13U A28U G33U U48C A57G C62U stands 0.08; under A13U A20G A56U A57G G70C, 0.07.
The same measure for A13U A15G A20G A35U: 0.14; for A13U A28G C44U U49C A77U: 0.07; for A13U A15G A21G A47G U72A: 0.07.
In the case of A13U A18U U41C U58C U72C, the self-cleavage worked out at 0.23.
Under A13U A28U A35G stands 1.2.
With A13U A18U C23U A45C U48C G70U U78C, the self-cleavage was found to be 0.02.
With A13G U48C U58C U67C U76C, the self-cleavage stood at 0.11.
Consider A13U A21U A28G A56G U60A U76C, for which the self-cleavage amounted to 0.07.
Under A13U A28G U51A G52U U58A U72G C81G stands 0.45; under A13U A35G U41G A45U U72C, 0.12; under A13U A28U U66C, 0.49.
Consider A13U A21G U49C U54A, for which the self-cleavage turned out to be 0.23.
For A13U A18G G46A U76A, the self-cleavage is 0.18.
For the variant A13U A21G U48C U54A, the self-cleavage stood at 0.17.
